Assay results: paper PMC12040169 (PLOS Biology, 2025)
The other results are listed elsewhere or left out.

What follows are compounds tested on T1, C. trachomatis L2/434/Bu expressing GFP (CTL2-GFP). Conditions: total inclusion area; 28.5 h, 10 µM; inhibitor.
T1 construct: L2/434/Bu GFP intracellular growth in HeLa cells
Design: species or system HeLa; C. trachomatis total inclusion area by high-content imaging, normalised to DMSO
In short: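 High-content images of fixed, Hoechst-stained infected cultures supply inclusion area and count (growth) plus nuclei number (viability), complementing bulk GFP/resorufin fluorescence. MIC determination is unchanged from the primary assay.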

SMILES | % of control remaining
Cc1nc(NC(=O)C2Cc3ccccc3S2)sc1-c1n[nH]c(=S)n1C (stereo not shown) [CBK295337] | 105.899
CCN(CC)Cc1cc([N+](=O)[O-])cc2c1OCOC2 [CBK296613] | 113.6
CC1CCN(Cc2ccc(-c3cn(CC(=O)NCc4ccc(Br)cc4)nn3)cc2)CC1 [CBK164709] | 40.3048
O=C(C1=C(O)C(=O)N(CCCn2ccnc2)C1c1ccccc1)c1cccs1 (stereo not shown) [CBK264484] | 108.333
COc1ccc(S(=O)(=O)Nc2ccsc2C(=O)N2CCN(C)CC2)cc1OC [CBK004627] | 108.436
OCCCNc1nccnc1-c1cccnc1 [CBK037277] | 92.3728
O=C(Nc1ccc(F)cc1)c1sccc1NS(=O)(=O)c1cc(F)c(Br)cc1F [CBK004586] | 74.0211
CCCc1nc(NC(CCO)c2ccc(C)cc2)c2cnn(C)c2n1 (stereo not shown) [CBK307309] | 84.9258
Cn1nc2c(c1C(=O)NCC(C)(C)N1CCCCC1)CCCC2 [CBK281878] | 114.123
CN(C)c1ccc(/C=N/NC(=O)CSc2nnc(-c3ccccc3)n2-c2ccccc2)cc1 [CBK262263] | 119.453
Cc1nn(C)cc1C(C)NC(=O)c1ccc2c(c1)ncn2C (stereo not shown) [CBK281732] | 102.722
Cc1cc(NC(=O)C2CCN(C)CC2)c2ccccc2n1 [CBK122730] | 108.506
Cc1ccc(-c2nc(C)c(C(=O)Nc3ccc(-n4cncn4)nc3)s2)o1 [CBK297770] | 98.8935
c1cnc(N2CCCC2)c(OC2CCCNC2)n1 (stereo not shown) [CBK115283] | 116.703
O=C(O)[C@@H]1CSC(c2ccc(C(F)(F)F)cc2)N1 (stereo partly shown) [CBK286921] | 92.1074
Cc1ccc(S(=O)(=O)N2CCOCC2)cc1S(=O)(=O)N1CCOCC1 [CBK261733] | 101.579
CCC(=O)N1CCC2(CC1)Nc1ccccc1-n1cccc12 [CBK283488] | 93.5056
COc1cccc(-c2cccc(C3CCCN(C(=O)Cc4c[nH]c5ccccc45)C3)n2)c1 (stereo not shown) [CBK286207] | 92.5603
CN1C(=O)C(C)(C)Oc2ccc(C(O)c3ccco3)cc21 (stereo not shown) [CBK284469] | 92.6351
CSCCC(NC(=O)NCCc1ccccc1)c1nnc2ccccn12 (stereo not shown) [CBK304417] | 84.2075
COc1cc(OC)nc(C(NC(=O)C2CCN(Cc3nccs3)CC2)c2ccc(Cl)cc2)n1 (stereo not shown) [CBK148217] | 109.04
CCSc1nnc(NC(=O)c2cnc(SC)nc2CC)s1 [CBK291250] | 120.077
